Consider 22 molecules from article PMC12136788.

Some of the results follow.

Sequences and labels used below:
T1: UNK ZnF1-3 (human, UniProt Q9C0B0 31-174)
T1 sequence: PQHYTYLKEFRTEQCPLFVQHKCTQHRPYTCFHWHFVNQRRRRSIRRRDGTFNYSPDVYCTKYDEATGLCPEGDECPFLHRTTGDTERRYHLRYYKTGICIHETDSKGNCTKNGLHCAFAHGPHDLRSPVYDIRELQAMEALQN

B1: chr11:4127340:4127341:+_ENSG00000167325_ENST00000300738|hu_mus|hu_hu_hu_mus_False|28_98 (ssRNA)
RNA: GGGAGUUCUACAGUCCGACGAUCGGCAUAGUCAGGGUGCUUAGUAGUCAAGGUCGCGGCUGUCUCAGCAGCCAGGGUGUCCAGUUCCACUGUGGUGACCCCACUAUACAAGCCUUGGAUUACUUUCAUGGUGAUCUGAGCAGGCAACAGAGGAUUGAGCAUCA
B2: chr5:64892317:64892318:-_ENSG00000113595_ENST00000231524|hu_mus|FALSE|FALSE (ssRNA)
RNA: GGGAGUUCUACAGUCCGACGAUCAGCUUGUGUAUUGAGGUAAUAAUGUUUCCACAAUGGUCUUAAUUUGUGUUUUCCACCCACAUCCCAAAUGGUGAAUUUUAGAUUUUUGUAUUCCACAGUUUCCACAUUAAAACCAAUUGUCAACAGAGGAUUGAGCAUCA
B3: chr1:163122491:163122492:-_ENSG00000143248_ENST00000313961|hu_mus|FALSE|FALSE (ssRNA)
RNA: GGGAGUUCUACAGUCCGACGAUCGGCAACCCAGAACUCAAGGUUUUCCUCACUGAAUUCAGACUUCAGGAAACUUUUGAAGCUGGCAAAUCCAUAGCUGUUCUGGAGAAGCUUGUCCAGGGACUGGCGCCACUGCAGGACCUCCAACAGAGGAUUGAGCAUCA
B4: chr7:26236612:26236613:-_ENSG00000122566_ENST00000356674|hu_hu|motif|central (ssRNA)
RNA: GGGAGUUCUACAGUCCGACGAUCAACAAACAGCUUCUUCACAGUUACAUGAGCCCCUGGUUUUCCAGAUUCCUCUCUUGCGGCAGCACGUUUUGGCUCAACUACUCUCCCAUCAAUUGAAUGAGGUCUUGCAGCCAUGGCAGCCAACAGAGGAUUGAGCAUCA
B5: chr5:92873050:92873051:-_ENSMUSG00000029426_ENSMUST00000031377|mus_mus|FALSE|FALSE (ssRNA)
RNA: GGGAGUUCUACAGUCCGACGAUCUCCCAGGGCCCAACCACAAAAAGUUUCUACACAAGUUUAUUAAAUACUUCCUAGACACAUGAACACAGUUUUAGAGACACGAUUUUAUAAAGCAGAAUUGCCAGCCAUGUCACCCUGCUCCAACAGAGGAUUGAGCAUCA
B6: chr1:186326634:186326635:-_ENSG00000047410_ENST00000367478|hu_hu|FALSE|FALSE (ssRNA)
RNA: GGGAGUUCUACAGUCCGACGAUCGGCCACUAAGAGACGUUGAUUUUGUUGUUGAAGCUCUUCAAUAUUUCUGUAAGAUACUAGAUGCUGUGAUAUUACCUCAGAUGAACUACUUAUAUCAGCAGAGCUUACUUCCUCAUCACGCAACAGAGGAUUGAGCAUCA
B7: chr3:148802587:148802588:-_ENSG00000071794_ENST00000310053|hu_mus|hu_hu_hu_mus_False|1_58 (ssRNA)
RNA: GGGAGUUCUACAGUCCGACGAUCUCCAACAACUUGUCCUCUCAUAGUUCCAAAUAAAACCAAAUCUUGCUCUUCAUCACUAGUUAGGAAGUCAUCUGGAGGAAUAAUGUCUUGGAAUUCAAAAUGUGGCAAGAAAGUUGGAUACAACAGAGGAUUGAGCAUCA
B8: chr14:78183846:78183847:+_ENSG00000119705_ENST00000557342|hu_hu|hu_hu_hu_mus_False|28_88 (ssRNA)
RNA: GGGAGUUCUACAGUCCGACGAUCUCUCAGAAAUCUUUCUUCAUCAGCAUCAUCAGAUCCGUGCAAAGCCUUUGCUCUUUGAGCUUGAACGUGGAUCUAUGGGAGGGCUAUAAUAUGCAGAAAAGGUAAUUUUUUUUUUAAAGACAACAGAGGAUUGAGCAUCA
B9: chr7:129668796:129668797:-_ENSG00000091732_ENST00000358303|hu_hu|motif|central (ssRNA)
RNA: GGGAGUUCUACAGUCCGACGAUCGGAAGGAAGCUGGAGGUCCAAGUGACAAAGGCUUUGAAAACGAUCUAGGAAUUCACGGACAAGAAUAGCAGGCUCAUCCAGGGGCAACAUCCCAAAUCGGUCUGGGGAUGGGCUGUCUGGCAACAGAGGAUUGAGCAUCA
B10: 87691091_87691328_4739_CDS_ENSG00000163629_ENST00000511467|human|control|control (ssRNA)
RNA: GGGAGUUCUACAGUCCGACGAUCUAGCACACCAGGUGGAGGUCUGCAGAGAAGCAAGAAUACUUCUGGAGCAGUUCCCCUGAGAGCAGAUAUGACUUCCUGCUGAGAUAGUCCUUUCAAAGAGGCUCCAUUCACUUUCAAGAUCAACAGAGGAUUGAGCAUCA
B11: chr4:33333233:33333234:-_ENSMUSG00000040128_ENSMUST00000049357|mus_hu|FALSE|FALSE (ssRNA)
RNA: GGGAGUUCUACAGUCCGACGAUCUGCCCCAGCAUAAUUUUCCUUUUGGCUCACUUCAGUUAGAAAUGCUGAUUUCUUCAAAUGCGAAUUUUUAAUGUUCUCGGUAUUUUUAAAAGGCUUUUUUUCCUGCUUCUGAAUUCUGUCCAACAGAGGAUUGAGCAUCA
B12: chr8:11702082:11702083:-_ENSG00000164733_ENST00000533455|hu_mus|FALSE|FALSE (ssRNA)
RNA: GGGAGUUCUACAGUCCGACGAUCCUAUAAAACCAGUACAGCUCUUCAUACUUGGUUGAGGUACACAAAGCAUAAAAAUCCUAUUGAAAAAGCAUCGGCUGAGGACAGGACCAAGGAGAGCUGGCCACAUUACCAAUGUCGAUGCAACAGAGGAUUGAGCAUCA
B13: chrX:51638331:51638332:+_ENSG00000179222_ENST00000326587|hu_hu|FALSE|FALSE (ssRNA)
RNA: GGGAGUUCUACAGUCCGACGAUCAGAGAAAUCAUAGACACCAUUUGGGCCUUUUGUGGUGGCAUUCUGGACUUUAAAGGCUGACUUAGGCCUAGCGGCAGCUGCUGAAACCUGAAUGUCAGCCAUCUCAUUGGCAGUUGGGGGCAACAGAGGAUUGAGCAUCA
B14: chr14:89307221:89307222:+_ENSG00000165533_ENST00000346301|hu_mus|hu_hu_hu_mus_False|58_98 (ssRNA)
RNA: GGGAGUUCUACAGUCCGACGAUCUCCUGUUUGGUUAGUUCCAGGGAGCUUCAAAGAUGUGCCAGGGCGUGGGACCUGAGCUAUAGCAUUUUCAUCCAGGAUCAUUUCAGCAAUUCCUUCCUGGUCCACAUCAAUUUCAUCUAUCAACAGAGGAUUGAGCAUCA
B15: 126075815_126079875_1646_CDS_ENSG00000164961_ENST00000318410|human|control|control (ssRNA)
RNA: GGGAGUUCUACAGUCCGACGAUCCUCAGUCAUCCGCUCCGAACCCUCUUUCUUGUAAUGCUCCCAUUUGGUUUGCUUUUCUGAAAGCAUUUGCUUGAACAUCUCUUUGAGUAUAAACUCAAAUUGUGCAGUAUCUAACAGCAGCAACAGAGGAUUGAGCAUCA
B16: chr4:17845017:17845018:+_ENSG00000109805_ENST00000514176|hu_mus|hu_hu_hu_mus_False|68_108 (ssRNA)
RNA: GGGAGUUCUACAGUCCGACGAUCGCUUCCUAACUUAGUAUCUUCAUUAAGGAACUCUGCAAGGUUAGUUUACUUUUUCUGUAGCGCAGCUGUUUUGGCUCGUCUGGGUAAUCUCAUCUUCAUUUCUGAUGGUGGUUCAUGAUCCAACAGAGGAUUGAGCAUCA
B17: chrX:12728449:12728450:+_ENSMUSG00000031010_ENSMUST00000089302|perfect_dup|motif|central (ssRNA)
RNA: GGGAGUUCUACAGUCCGACGAUCAUGCCCUAAGGCUUUUAAAGCUUCAUCUAAACUAUCCACCAAAGAAUUAAAGAACUCGGAAGCAUCAUGUUGUUCACGAAGAUUGACAGGCUCACCCCAAAGCCUGAACUGUUUCCAAAACAACAGAGGAUUGAGCAUCA
B18: chr16:37881740:37881741:+_ENSMUSG00000034158_ENSMUST00000078717|mus_hu|FALSE|FALSE (ssRNA)
RNA: GGGAGUUCUACAGUCCGACGAUCCUGCAAACCAUCAGCCAAAUGUGAAACUAUCAUUCACAAAUUAUGUUAAAAUAAUCUAAACAUGGGACUGGACUCAUUCUUGCUGAAUGGGUAGAUGAAACACAAAAUGUUUUAUAUCAUCAACAGAGGAUUGAGCAUCA
B19: chr2:171811166:171811167:+_ENSG00000115806_ENST00000234160|hu_hu|motif|central (ssRNA)
RNA: GGGAGUUCUACAGUCCGACGAUCUCCUUCCUCAAAUGGGCGUGUAGGUAUUCGAUGCAAAUAACCAUAUCCAAUGCCACAUCCGGGGCUGCCUUCUCCACCCCAUGCAGAAUUUGGUGUAAUAAUCACUUCUCGACAGUUAUCCAACAGAGGAUUGAGCAUCA
B20: chr12:52885226:52885227:-_ENSMUSG00000035247_ENSMUST00000042052|mus_hu|motif|central (ssRNA)
RNA: GGGAGUUCUACAGUCCGACGAUCUUUAAAAACAUUUAUUCUUUCUACCAGUUGACUACAAUCUUGUUUCAUAUCCAAAUCCAUGCGGUUGUUUAACACAGUAAGAAGUGCUUGUACCAAGCCACUGCUACACAUUUCAUAUGGCAACAGAGGAUUGAGCAUCA
B21: 61654106_61657301_1337_CDS_ENSG00000068796_ENST00000381103|human|control|control (ssRNA)
RNA: GGGAGUUCUACAGUCCGACGAUCACCCAUAGUAUGAGUUUUUCCACUUCCAGUCUGCCCAUAAGCAAAGCAUGUAGCCAUUCCCCUUUCAAAUAUAGUUUCCACUAGUGGUCUAGCAGUAAACCUGUAAACCAUUUCAUUAGGCAACAGAGGAUUGAGCAUCA
B22: chr8:74746221:74746222:+_ENSMUSG00000003039_ENSMUST00000003123|mus_hu|FALSE|FALSE (ssRNA)
RNA: GGGAGUUCUACAGUCCGACGAUCUACACAGCUUCGAAAAGCAGUCUGUAGCAGAAGAUGCAAGGGUGUGUGUAGCCAUGUUUCCAGAAUAUACCAAAGGAAACACACACAACCCCAGUGUGGCCUUUUGCGAACCCUCGAUGCCAACAGAGGAUUGAGCAUCA

For this assay, the target named is T1, UNK ZnF1-3. Put plainly: nsRBNS (natural sequence RNA bind-n-seq); RBNS binding buffer (assumed for nsRBNS): 25 mM Tris pH 7.5, 150 mM KCl, 3 mM MgCl2, 0.01% Triton X-100, 500 ug/ml BSA, 20 U/ml SUPERase-In, 4 C; UNK is unkempt and MSI1 is Musashi-1; names of the RNAs are library labels; protein concentration not given here; high values mean tight binding.
Turning to B1, the binding signal worked out at 0.965 enrichment R. Take B2: the binding signal turned out to be 0.951 enrichment R. For B3 the value was 1.21 enrichment R; for B4, 1.1 enrichment R; for B5, 2.01 enrichment R.

Molecule B6 registered a binding signal of 0.904 enrichment R.

With B7, the binding signal is 1.08 enrichment R.

B8 displayed a binding signal of 1.63 enrichment R. The molecule B9 showed a binding signal of 1.41 enrichment R. The same measure for B10: 1.08 enrichment R; for B11: 0.585 enrichment R; for B12: 1.07 enrichment R. As to B13, the binding signal amounted to 1.17 enrichment R. For B14 the value was 0.829 enrichment R; for B15, 0.885 enrichment R. The same measure for B16: 0.488 enrichment R.

B17: the binding signal came to 1.65 enrichment R. The same measure for B18: 0.87 enrichment R; for B19: 1.02 enrichment R; for B20: 0.974 enrichment R.

The molecule B21 gave a binding signal of 0.89 enrichment R. The same measure for B22: 0.731 enrichment R.
